# Measured values published in US9234178B2, “Differentiation of human pluripotent stem cells” (Janssen Biotech, Inc., priority 2008, dated 2016).
# Where “and” joins values, the source holds several entries; their conditions need not be identical. Equal entries are not always repeated. Where two headings read alike, the source gives them in different places.
# How the values were obtained:
# [1] = tested on: cells expressing markers characteristic of the pancreatic endocrine lineage; test: Summary of kinase inhibitor screens: MAFA induction and toxicity (Example 12); format: cell-based, human; details: for induction of MAFA expression (in words): summary of the screens
# [2] = tested on: cells expressing markers characteristic of the pancreatic endocrine lineage; test: Screening of EMD Kinase Inhibitor Library I for MAFA expression, real-time PCR (Example 10); format: cell-based, human; details: for Gene Induction vs. H1: MAFa: days 1, 3, 5 of stage 5, fold increase versus untreated H1 human embryonic stem cells; for fold induction at 2.5 µM: Embryonic stem cell, days 1, 3, 5 of stage 5, fold increase versus untreated H1 human embryonic stem cells, read-out: Gene Induction vs. H1: MAFa
# [3] = tested on: cells expressing markers characteristic of the pancreatic endocrine lineage; test: Screening of EMD Kinase Inhibitor Library II for MAFA expression, real-time PCR (Example 11); format: cell-based, human; details: for Fold Induction of MAFA expression, fold vs. control: 2.5 μM, days 1, 3, 5 of stage 5
# [4] = tested on: cells expressing markers characteristic of the pancreatic endocrine lineage; test: Screening of BIOMOL Kinase Inhibitor Library, real-time PCR (Example 7); details: for fold induction at 4 µM: Homo sapiens, 144 h; for Ratio vs. Control: Insulin to Glucagon / Ratio vs. Control: MAFA to Arx4: 4 μM, six days
# [5] = tested on: cells expressing markers characteristic of the pancreatic endocrine lineage; test: Genistein treatment on days 1, 3 and 5 of stage 5, mRNA expression by real-time PCR (Example 12)
# [6] = read-out: Ratio vs. Control: Insulin to Glucagon
# [7] = read-out: Ratio vs. Control: MAFA to Arx4
compound,measurement,setting,value
COc1cc2c(cc1OC)-c1[nH]nc(Nc3cccc(F)c3)c1C2,induction of MAFA expression (in words),[1],induction of MAFA expression
same,"increase in MAFA expression, fold higher than vehicle treated controls",[2]; 2.5 μM,at least 2.5 fold
same,Gene Induction vs. H1: MAFa,[2]; 2.5 μM,5.5 fold
"N#CCCc1ccc2c(c1)-c1[nH]c3ccc([N+](=O)[O-])cc3c1CC(=O)N2 [Alsterpaullone, 2-Cyanoethyl]",toxicity (in words),[1],less toxicity
same,induction of MAFA expression (in words),[1],induce MAFA
O=C1Cc2c([nH]c3ccc([N+](=O)[O-])cc23)-c2ccccc2N1 [Alsterpaullone],toxicity (in words),[1],less toxicity
same,induction of MAFA expression (in words),[1],induce MAFA
"NC(=O)c1ccc(-c2nc(-c3ccc4c(c3)OCCO4)c(-c3ccccn3)[nH]2)cc1 [Casein Kinase I Inhibitor, D4476]","Fold Induction of MAFA expression, fold vs. control",[3],4.5 fold and 5.7 fold
"CO[C@H]1[C@@H](OC)C[C@H](C)[C@@H](OC)C2=CC(=O)C=C(NC(=O)/C(C)=C/C=C\[C@H](OC)[C@@H](OC(N)=O)/C(C)=C/[C@@H]1C)C2=O [Herbimycin A, Streptomyces sp., Herbimycin A]",Gene Induction vs. H1: MAFa,[2]; 2.5 μM,1.3 fold
O=C(Nc1nc2ccccc2n1CCN1CCOCC1)c1cccc([N+](=O)[O-])c1 [IRAK-1/4 Inhibitor],Gene Induction vs. H1: MAFa,[2]; 2.5 μM,2.2 fold
CCCNC(=O)Nc1ccc(Oc2ncnc3cc(OC)c(OC)cc23)cc1Cl [KRN633],fold induction at 2.5 µM,[2],1.6
Nc1ncnc2c1c(-c1ccc(Oc3ccccc3)cc1)cn2C1CCCC1 [Lck Inhibitor],Gene Induction vs. H1: MAFa,[2]; 2.5 μM,1.9 fold
N#CC(=C(N)Sc1ccc(N)cc1)c1ccccc1C(F)(F)F [MEK1/2 Inhibitor],"Fold Induction of MAFA expression, fold vs. control",[3],4.5 fold and 4.92 fold
same,induction of MAFA expression (in words),[1],induction of MAFA expression
CNc1cc2c(Nc3cccc(Br)c3)ncnc2cn1 [PD 158780],Gene Induction vs. H1: MAFa,[2]; 2.5 μM,0.8 fold
CCC(=O)Nc1ccc2ncnc(Nc3cccc(Br)c3)c2c1 [PD 174265],Gene Induction vs. H1: MAFa,[2]; 2.5 μM,1.0 fold
O=C1NC(=O)/C(=C/c2ccc3nccnc3c2)S1 [PI 3-Kg Inhibitor],Gene Induction vs. H1: MAFa,[2]; 2.5 μM,1.6 fold
Oc1cccc(-c2nc(N3CCOCC3)c3oc4ncccc4c3n2)c1 [PI-103],fold induction at 2.5 µM,[2],1.9
O=C1NC(=O)C(c2cn(CCCn3ccnc3)c3ccccc23)=C1Nc1ccccc1 [PKCb Inhibitor],Gene Induction vs. H1: MAFa,[2]; 2.5 μM,1.6 fold
O=C1Nc2ccc3ncsc3c2/C1=C/c1cnc[nH]1 [PKR Inhibitor],induction of MAFA expression (in words),[1],induction of MAFA expression
same,Gene Induction vs. H1: MAFa,[2]; 2.5 μM,24.6 fold
"CC(C)(C)n1nc(Cc2cccc3ccccc23)c2c(N)ncnc21 [PP1 Analog II, 1NM-PP1, 1NM-PP1]",Gene Induction vs. H1: MAFa,[2]; 2.5 μM,2.3 fold
"Nc1nc(Nc2ccc(S(N)(=O)=O)cc2)nn1C(=S)Nc1c(F)cccc1F [PubChem ID#5330812, 5-Amino-3-((4-(aminosulfonyl)phenyl)amino)-N-(2,6-difluorophenyl)-1H-1,2,4-triazole-1-carbothioamide]","Fold Induction of MAFA expression, fold vs. control",[3]; listed as Cdk1/2 Inhibitor III,8.2 fold
same,fold induction at 2.5 µM,"[3]; Homo sapiens, read-out: Fold Induction of MAFA expression, fold vs. control, 2.5 μM, days 1, 3, 5 of stage 5",4.5
same,toxicity (in words),[1],less toxicity
same,induction of MAFA expression (in words),[1],induce MAFA
"c1ccc2c(-c3ccncc3)c[nH]c2c1 [Rho Kinase Inhibitor III, Rockout]",Gene Induction vs. H1: MAFa,[2]; 2.5 μM,1.7 fold
COc1ccc2c(c1)/C(=C/c1cnc[nH]1)C(=O)N2 [SU9516],toxicity (in words),[1],less toxicity
same,induction of MAFA expression (in words),[1],induce MAFA
CCN(CC)CCNC(=O)c1c(C)[nH]c(/C=C2\C(=O)Nc3ccc(Cl)cc32)c1C [SU11652],fold induction at 2.5 µM,[2],1.7
O=[N+]([O-])/C=C/c1ccc2c(c1)OCO2 [Syk Inhibitor III],fold induction at 2.5 µM,[2],1.1
Cn1cc(/C=C2\C(=O)Nc3ccc(S(N)(=O)=O)cc32)c2ccccc21 [Syk Inhibitor],Gene Induction vs. H1: MAFa,[2]; 2.5 μM,1.2 fold
Cc1cccc(-c2[nH]c(C(C)(C)C)nc2-c2ccc3c(c2)OCO3)n1.Cl [TGF-b RI Inhibitor III],Gene Induction vs. H1: MAFa,[2]; 2.5 μM,1.6 fold
"CN[C@@H]1C[C@H]2O[C@@](C)([C@@H]1OC)n1c3ccccc3c3c4c(c5c6ccccc6n2c5c31)C(=O)NC4 [Well B6, Staurosporine]",fold induction at 4 µM,"[4]; read-out: Ratio vs. Control: Insulin to Glucagon, 4 μM, six days",1.6
same,fold induction at 4 µM,"[4]; read-out: Ratio vs. Control: MAFA to Arx4, 4 μM, six days",> 10
same,toxicity (in words),"[1]; at concentrations effective for MAFA induction, compared with staurosporine",cytotoxic at effective concentrations
same,induction of MAFA expression (in words),[1],can effectively induce MAFA
"COc1cc2ncnc(Nc3cccc(Cl)c3)c2cc1OC [Well C6, Tyrphostin AG 1478]",Ratio vs. Control: Insulin to Glucagon,[4],1.6
same,Ratio vs. Control: MAFA to Arx4,[4],1.2
same,Gene Induction vs. H1: MAFa,[2]; 2.5 μM,2.7 fold
"Cc1cc2ncc(-c3ccccc3)nc2cc1C [Well C7, Tyrphostin AG 1295]",Ratio vs. Control: Insulin to Glucagon,[4],4.3
same,Ratio vs. Control: MAFA to Arx4,[4],0.2
same,Gene Induction vs. H1: MAFa,[2]; 2.5 μM,1.4 fold
"N#C/C(=C\c1ccc(O)c(O)c1)C(=O)NCc1ccccc1 [Well D1, AG-490]",Ratio vs. Control: Insulin to Glucagon,[4],2.7
same,Ratio vs. Control: MAFA to Arx4,[4],1.2
same,Gene Induction vs. H1: MAFa,[2]; 2.5 μM,1.4 fold
"O=c1cc(N2CCOCC2)oc2c(-c3ccccc3)cccc12 [Well D5, LY 294002]",fold induction at 4 µM,[4]; [6],1.4
same,fold induction at 4 µM,[4]; [7],1.1
same,fold induction at 2.5 µM,[2],2.3
"COc1cc2ncc(-c3ccccc3)nc2cc1OC [Well F7, AG-1296]",Ratio vs. Control: Insulin to Glucagon,[4],1.9
same,Ratio vs. Control: MAFA to Arx4,[4],0.6
same,Gene Induction vs. H1: MAFa,[2]; 2.5 μM,1.1 fold
"O=c1c(-c2ccc(O)cc2)coc2cc(O)cc(O)c12 [Well F11, Genistein]",glucagon expression versus untreated controls,[5]; 10 ng/ml,increased expression
same,glucagon expression,[5]; 100 ng/ml dose,loss
same,insulin expression,[5]; 100 ng/ml dose,loss
same,somatostatin expression,[5]; 100 ng/ml dose,loss
same,toxicity,[5]; 100 ng/ml dose,significant toxicity
same,MAFA expression versus untreated controls,[5]; 10 and 30 ng/ml,increased expression
same,insulin expression versus untreated controls,[5]; 10 and 30 ng/ml,increased expression
same,somatostatin expression versus untreated controls,[5]; 10 and 30 ng/ml,increased expression
same,fold induction at 4 µM,[4]; [6],0.8
same,fold induction at 4 µM,[4]; [7],1.9
"CO[C@H]1C[C@@H]2CC[C@@H](C)[C@@](O)(O2)C(=O)C(=O)N2CCCC[C@H]2C(=O)O[C@H]([C@H](C)C[C@@H]2CC[C@@H](O)[C@H](OC)C2)CC(=O)[C@H](C)/C=C(\C)[C@@H](O)[C@@H](OC)C(=O)[C@H](C)C[C@H](C)/C=C/C=C/C=C/1C [Well H8, Rapamycin]",fold induction at 4 µM,[4]; [6],2.1
same,fold induction at 4 µM,[4]; [7],0.8
same,fold induction at 2.5 µM,[2],1.2
Akt Inhibitor IV,induction of MAFA expression (in words),[1],induction of MAFA expression
same,Gene Induction vs. H1: MAFa,[2]; 2.5 μM,45.7 fold
DNA-PK Inhibitor III,Gene Induction vs. H1: MAFa,[2]; 2.5 μM,2.2 fold
Flt-3 Inhibitor II,Gene Induction vs. H1: MAFa,[2]; 2.5 μM,0.5 fold
IGF-1R Inhibitor II,Gene Induction vs. H1: MAFa,[2]; 2.5 μM,1.6 fold
JAK3 Inhibitor II,Gene Induction vs. H1: MAFa,[2]; 2.5 μM,2.0 fold
JAK3 Inhibitor IV,Gene Induction vs. H1: MAFa,[2]; 2.5 μM,1.7 fold
JAK Inhibitor I,Gene Induction vs. H1: MAFa,[2]; 2.5 μM,1.4 fold
PDGF Receptor Tyrosine Kinase Inhibitor II,Gene Induction vs. H1: MAFa,[2]; 2.5 μM,0.8 fold
PDK1/Akt/Flt Dual Pathway Inhibitor,Gene Induction vs. H1: MAFa,[2]; 2.5 μM,2.1 fold
PI 3-KbInhibitor II,Gene Induction vs. H1: MAFa,[2]; 2.5 μM,1.4 fold
PKCbII/EGFR Inhibitor,Gene Induction vs. H1: MAFa,[2]; 2.5 μM,1.8 fold
"PKR Inhibitor, Negative Control",Gene Induction vs. H1: MAFa,[2]; 2.5 μM,1.5 fold
Rho Kinase Inhibitor IV,Gene Induction vs. H1: MAFa,[2]; 2.5 μM,2.3 fold
"Staurosporine, N-benzoyl-",Gene Induction vs. H1: MAFa,[2]; 2.5 μM,11.7 fold
TGF-b RI Kinase Inhibitor,Gene Induction vs. H1: MAFa,[2]; 2.5 μM,1.1 fold
VEGF Receptor 2 Kinase Inhibitor I,Gene Induction vs. H1: MAFa,[2]; 2.5 μM,1.7 fold
VEGF Receptor 2 Kinase Inhibitor II,Gene Induction vs. H1: MAFa,[2]; 2.5 μM,1.0 fold
VEGF Receptor 2 Kinase Inhibitor IV,Gene Induction vs. H1: MAFa,[2]; 2.5 μM,2.1 fold
VEGF Receptor Tyrosine Kinase Inhibitor II,Gene Induction vs. H1: MAFa,[2]; 2.5 μM,1.0 fold
